Assay results published in the antibiotic and cytotoxicity screens of Wong et al. (2023).
The other results are listed elsewhere or left out.

Legend:
HSkMC = human skeletal muscle cells; assay: cytotoxicity call (relative viability < 0.9); settings: 10 µM
HepG2 = assay: cytotoxicity call (relative viability < 0.9); settings: 10 µM
S. aureus RN4220 = assay: growth inhibition call (relative growth <= 0.2); settings: 50 µM

Row | Compound | cytotoxicity call (HSkMC) | cytotoxicity call (HepG2) | growth inhibition call (S. aureus RN4220)
1 | CC12CCC(=O)C=C1CCC1C2C(O)CC2(C)C1CCC2(O)C(=O)COC(=O)CCC(=O)O (configuration not stated) | inactive | inactive | inactive
2 | CCCN(C)C[C@@H]1OCCCC[C@@H](C)Oc2ccc(NC(=O)c3ccccc3)cc2C(=O)N([C@H](C)CO)C[C@@H]1C | inactive | inactive | inactive
3 | CCS(=O)(=O)N1C[C@]2(CN(C2)S(=O)(=O)c2cn(cn2)C)c2c(n(c3cc(ccc23)OC)C)[C@H]1CO | inactive | inactive | inactive
4 | O=C(Nc1ccc(C(=O)O)c(O)c1)c1ccccc1 | inactive | inactive | inactive
5 | C[C@@H]1CN([C@@H](C)CO)C(=O)c2cc(NC(=O)CCCN(C)C)ccc2O[C@@H]1CN(C)C(=O)NC1CCCCC1 | inactive | inactive | inactive
6 | O=C(NC1CCN(CCCCC2(C(=O)NCC(F)(F)F)c3ccccc3-c3ccccc32)CC1)c1ccccc1-c1ccc(C(F)(F)F)cc1 | active | active | active
7 | C[C@H]1CCCCO[C@H](CN(C)C(=O)Nc2cccc3ccccc23)[C@@H](C)CN([C@@H](C)CO)C(=O)c2cc(NC(=O)Nc3ccc(C(F)(F)F)cc3)ccc2O1 | inactive | inactive | inactive
8 | CC(C)NC(=O)Nc1ccc2c(c1)C(=O)N([C@H](C)CO)C[C@@H](C)[C@H](CN(C)Cc1ccc(C(=O)O)cc1)O2 | inactive | inactive | inactive
9 | Cc1ccc(S(=O)(=O)N(C)C[C@@H]2OCCCC[C@@H](C)Oc3ccc(NC(=O)Nc4ccc5c(c4)OCO5)cc3C(=O)N([C@H](C)CO)C[C@@H]2C)cc1 | inactive | inactive | inactive
